Each structure is given as a SMILES string. The list shows a part of the results.

In one experiment the test system is HSkMC (human skeletal muscle cells). Briefly: cytotoxicity call (relative viability < 0.9). Conditions: 10 µM.
For the compound `COc1ccc(S(=O)(=O)N(C)C[C@@H]2Oc3cc(C4=CCCC4)ccc3S(=O)(=O)N([C@@H](C)CO)C[C@@H]2C)cc1`, the cytotoxicity call was “inactive”.
Still for that read-out and setting: to `CC(C)NC(=O)N(C)C[C@@H]1Oc2c(NS(=O)(=O)c3ccccc3)cccc2C(=O)N([C@@H](C)CO)C[C@H]1C` belongs “inactive”; to `COCC#Cc1ccc2c(c1)O[C@@H](CN(C)S(=O)(=O)c1ccc(F)cc1)[C@H](C)CN([C@H](C)CO)S2(=O)=O`, “inactive”.
Consider `C[C@H](CO)N1C[C@H](C)[C@H](CN(C)C(=O)c2cccnc2)Oc2ncc(-c3ccc(C(=O)N(C)C)cc3)cc2C1=O`, for which the cytotoxicity call was “inactive”.
Still for that read-out and setting: to `C[C@H](CO)N1C[C@H](C)[C@H](CN(C)S(=O)(=O)c2ccccc2)Oc2ccc(NC(=O)Cn3cnnn3)cc2C1=O` belongs “inactive”; to `CC(=O)N[C@H]1[C@H](O/N=[N+](\[O-])N2CCCC2)O[C@H](CO)[C@@H](O)[C@@H]1O`, “inactive”.
As to `C[C@H](CO)N1C[C@H](C)[C@@H](CN(C)Cc2ccccc2C(F)(F)F)OCc2ccccc2-c2c(n(C)c3ccccc23)C1=O`, the cytotoxicity call is “active”.
Same read-out and setting: in the case of `NC(=O)N1Cc2nccn2C[C@H](Cn2ncccc2=O)C1` it was “inactive”; in that of `COc1ccc(NC(=O)Nc2ccc3c(c2)C(=O)N([C@@H](C)CO)C[C@H](C)[C@@H](CN(C)C(=O)Nc2ccc(C(F)(F)F)cc2)OCCCC[C@H](C)O3)cc1`, “inactive”; in that of `COc1ccccc1CNC(=O)C[C@H]1C[C@H]2c3cc(NC(=O)NC4CCCC4)ccc3O[C@H]2[C@@H](CO)O1`, “inactive”.
Still for that read-out and setting: to `COc1ccccc1C#Cc1ccc2c(c1)O[C@@H](CN(C)Cc1cncnc1)[C@@H](C)CN([C@H](C)CO)S2(=O)=O` belongs “inactive”.

The next experiment has as its system HepG2. Kind of experiment: cytotoxicity call (relative viability < 0.9). Conditions: 10 µM.
Consider `C[C@@H]1CN([C@H](C)CO)C(=O)c2cc(NC(=O)C3CCCCC3)ccc2O[C@@H](C)CCCCO[C@H]1CN(C)C(=O)CCC(F)(F)F`, for which the cytotoxicity call is “inactive”.
Still for that read-out and setting: in the case of `C=CCOC(=O)[C@H]1[C@@H]2C(=O)O[C@@H](c3ccccc3)[C@@H](c3ccccc3)N2[C@@H](c2ccc(OCCOC(=O)[C@@H]3C[C@@H]4C(=O)N[C@@H](CCCCNC(C)=O)C(=O)N4[C@@H]3c3cccc(OCCO)c3)cc2)[C@]12C(=O)Nc1ccc(I)cc12` it was “inactive”.
Same read-out and setting: in the case of `CO[C@@H]1CN(C)C(=O)c2ccc(NC(=O)Nc3cccc(F)c3)cc2OC[C@@H](C)N(C(=O)Nc2c(C)noc2C)C[C@@H]1C` it was “inactive”; in that of `C[C@@H]1CCCCO[C@H](CN(C)C(=O)Nc2ccccc2)[C@@H](C)CN([C@H](C)CO)C(=O)c2cc(NC(=O)CCC(F)(F)F)ccc2O1`, “inactive”; in that of `Cc1noc(C)c1NC(=O)N(C)C[C@H]1Oc2c(NS(=O)(=O)c3ccccc3)cccc2C(=O)N([C@H](C)CO)C[C@H]1C`, “inactive”.
Regarding `COc1ccc(S(=O)(=O)N(C)C[C@@H]2Oc3c(NS(=O)(=O)c4cccs4)cccc3C(=O)N([C@H](C)CO)C[C@@H]2C)cc1`, the cytotoxicity call is “inactive”.
Regarding `C[C@@H]1CCCCO[C@H](CN(C)C(=O)C2CCCCC2)[C@@H](C)CN([C@@H](C)CO)C(=O)c2cc(NC(=O)c3ccncc3)ccc2O1`, the cytotoxicity call was “inactive”.
On the same count and under the same terms, to `CO[C@@H]1CN(C)C(=O)c2cc(NC(=O)Nc3ccc(Cl)cc3)ccc2OC[C@H](C)N(C(=O)Nc2c(C)noc2C)C[C@H]1C` belongs “inactive”; to `Cc1cc(=O)n(C(N)=S)[nH]1`, “inactive”; to `C[C@@H](O)[C@H](N)C(=O)O`, “active”.
Still for that read-out and setting: to `O=C(C[C@H]1C[C@H]2c3cc(NC(=O)NC4CCCC4)ccc3O[C@H]2[C@@H](CO)O1)NCc1ccc2c(c1)OCO2` belongs “inactive”; to `C[C@H](CO)N1C[C@H](C)[C@@H](CN(C)C(=O)Cc2ccccc2)OCCCC[C@H](C)Oc2ccc(NS(=O)(=O)c3ccc(Cl)cc3)cc2C1=O`, “inactive”.
In the case of `C[C@H](CO)N1C[C@H](C)[C@@H](CN(C)Cc2ccc(Oc3ccccc3)cc2)Oc2ccc(NC(=O)c3ccncc3)cc2CC1=O`, the cytotoxicity call is “inactive”.
The same measure, in the same setting: to `OC[C@H]1O[C@H](O)[C@H](O)[C@@H](O)[C@@H]1O` belongs “inactive”.
On the same count and under the same terms, to `CCCNC(=O)N1C[C@H](O)COC[C@H]2O[C@H](CC(=O)N3CCOCC3)CC[C@@H]21` belongs “inactive”; to `COC(=O)C1=CO[C@@H](O[C@@H]2O[C@H](CO)[C@@H](O)[C@H](O)[C@H]2O)/C(=C\CO)[C@@H]1CC(=O)OCCc1ccc(O)cc1`, “inactive”; to `COc1ccc(NC(=O)N(C)C[C@@H]2Oc3ncc(C#C[C@H](C)O)cc3C(=O)N([C@@H](C)CO)C[C@@H]2C)cc1`, “inactive”.
The same measure, in the same setting: to `Cc1noc(C)c1S(=O)(=O)Nc1cccc2c1O[C@@H](CN(C)Cc1ccc(Oc3ccccc3)cc1)[C@@H](C)CN([C@@H](C)CO)C2=O` belongs “inactive”.

These data come from the antibiotic and cytotoxicity screens of Wong et al. (2023).
